Target: T1, EC-FGF receptor (extracellular region of the human FGF receptor flg 5, amino acids 1-374, expressed in … (human, UniProt P11362 22-376, N-linked oligosaccharides (glycoprotein, Mr 58,000; sites not assigned))
T1 construct: The N-terminus of the secreted protein was not determined; Purified on lentil lectin Sepharose; also called sFGF-R; soluble FGF-R
T1 sequence: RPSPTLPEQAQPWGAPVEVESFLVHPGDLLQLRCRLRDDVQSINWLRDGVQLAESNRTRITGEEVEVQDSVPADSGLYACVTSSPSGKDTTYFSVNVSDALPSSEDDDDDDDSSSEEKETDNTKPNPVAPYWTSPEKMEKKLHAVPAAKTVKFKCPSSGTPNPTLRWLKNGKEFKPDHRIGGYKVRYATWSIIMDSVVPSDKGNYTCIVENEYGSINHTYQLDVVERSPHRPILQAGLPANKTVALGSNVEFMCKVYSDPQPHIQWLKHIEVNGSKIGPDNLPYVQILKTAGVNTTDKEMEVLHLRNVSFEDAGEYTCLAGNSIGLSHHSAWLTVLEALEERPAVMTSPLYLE
Assay: soluble binding assay: EC-FGF receptor on concanavalin A coated wells, 125I-bFGF with increasing concentrations of bFGF, Scatchard analysis
Protocol: The FGF binding properties of EC-FGF receptor was determined using a soluble binding assay (adapted from the assay described by J. E. Robinson et al, *J Immunol Meth* (1990) 132:63–71).

Kd: < 5 nM
B1: Human basic FGF (recombinant, produced in yeast) (ligand)
chain: not shown
modifications: radioiodinated (125I) where used as tracer; residues not stated
notes: also called bFGF
